Laboratory results from article PMC11871038.
No constants are given. Whether binding was seen depends on the method and setting. In cells and extracts the contact can be indirect. Some entries that bind do so weakly or less than the wild type. For some of these results: Sequences can lack the tags named with a protein.

Key:
Flag-WT-FBXO33 (human) = target: T1, Flag-WT-FBXO33 (human) (UniProt Q7Z6M2); test: co-IP; cells transfected with His-tagged p53 forms and Flag-tagged FBXO33 forms; 1 mg total protein of the lysate incubated overnight at 4 °C with antibody-magnetic bead complexes, then blotting; bait not given
T1 sequence: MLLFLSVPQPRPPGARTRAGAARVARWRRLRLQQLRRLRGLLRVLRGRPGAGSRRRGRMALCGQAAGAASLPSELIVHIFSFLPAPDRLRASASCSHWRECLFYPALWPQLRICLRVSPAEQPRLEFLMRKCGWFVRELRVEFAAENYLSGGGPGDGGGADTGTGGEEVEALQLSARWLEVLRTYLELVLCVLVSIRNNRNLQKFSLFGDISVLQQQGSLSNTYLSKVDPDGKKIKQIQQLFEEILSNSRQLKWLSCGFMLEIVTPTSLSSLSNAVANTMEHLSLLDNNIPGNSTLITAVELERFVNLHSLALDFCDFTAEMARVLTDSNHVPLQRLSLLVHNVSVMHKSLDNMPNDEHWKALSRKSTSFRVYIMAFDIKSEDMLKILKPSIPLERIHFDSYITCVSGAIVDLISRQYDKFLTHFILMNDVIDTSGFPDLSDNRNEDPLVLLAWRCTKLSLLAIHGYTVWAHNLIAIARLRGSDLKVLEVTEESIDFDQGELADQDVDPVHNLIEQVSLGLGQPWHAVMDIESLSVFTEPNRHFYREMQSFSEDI

[1] = target: T2, Flag-▲1-111-FBXO33 (human) (UniProt Q7Z6M2); test: as above
T2 sequence: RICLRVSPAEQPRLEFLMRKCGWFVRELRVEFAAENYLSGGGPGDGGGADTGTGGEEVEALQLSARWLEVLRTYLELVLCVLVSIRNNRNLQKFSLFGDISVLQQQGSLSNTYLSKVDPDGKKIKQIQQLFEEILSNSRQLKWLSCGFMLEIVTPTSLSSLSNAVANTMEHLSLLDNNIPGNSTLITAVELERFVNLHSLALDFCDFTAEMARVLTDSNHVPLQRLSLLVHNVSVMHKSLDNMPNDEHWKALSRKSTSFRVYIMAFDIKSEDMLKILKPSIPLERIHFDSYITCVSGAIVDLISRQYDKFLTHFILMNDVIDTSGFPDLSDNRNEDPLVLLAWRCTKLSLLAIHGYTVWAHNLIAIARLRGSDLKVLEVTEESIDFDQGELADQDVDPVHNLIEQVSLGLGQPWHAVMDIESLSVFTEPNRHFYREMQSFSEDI

[2] = target: T3, Flag-▲111-555-FBXO33 (human) (UniProt Q7Z6M2); test: as above
T3 sequence: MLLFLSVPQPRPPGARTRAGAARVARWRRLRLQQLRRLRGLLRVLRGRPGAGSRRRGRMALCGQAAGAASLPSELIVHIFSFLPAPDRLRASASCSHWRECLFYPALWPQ

[3] = target: T4, F-box only protein 33 (human) (UniProt Q7Z6M2); test: co-IP; lysates of GBC-SD and SGC-996 cells; 1 mg total protein incubated overnight at 4 °C with antibody-magnetic bead complexes, then blotting; bait not given
T4 sequence: T1 sequence

| binding (Flag-WT-FBXO33 (human)) | binding [1] | binding [2] | binding [3] | Substance |
| --- | --- | --- | --- | --- |
| binds | binds | no binding |  | His-WT-p53 (from UniProt P04637 1-393) |
| binds |  |  |  | His-▲1-100-p53 (from UniProt P04637 101-393) (domain or fragment) |
| no binding |  |  |  | His-▲100–293-p53 (from UniProt P04637 1-393) (domain or fragment) |
| binds |  |  |  | His-▲293-393-p53 (from UniProt P04637 1-292) (domain or fragment) |
|  |  |  | binds | wild-type p53 (from UniProt P04637 1-393) |
